# Experimental data taken from the supplement of paper PMC3334620.
# The full ranking holds about 33,000 sequences; the median of “E-score (-0.5 to 0.5)” is about -0.04, and the highest 2% start at about 0.36. This is one part of the list.
# Biological target: T1, Hmlalpha2 (UniProt P0CY09)
# T1 sequence: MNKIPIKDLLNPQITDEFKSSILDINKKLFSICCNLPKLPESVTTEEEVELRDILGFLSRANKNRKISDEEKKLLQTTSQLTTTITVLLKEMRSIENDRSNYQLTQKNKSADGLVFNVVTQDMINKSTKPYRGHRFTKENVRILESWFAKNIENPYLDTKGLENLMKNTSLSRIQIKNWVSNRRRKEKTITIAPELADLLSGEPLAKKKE
# Assay: PBM E-score (8-mer binding enrichment) (E-score (-0.5 to 0.5)); higher = stronger / more preferred TF binding; most listed sequences are background and not binding sites
# Settings: protein concentration: 200 nM; construct: GST-full length
# Procedure, shortened: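 Universal all-10-mer Agilent arrays, fresh or stripped once, were converted to double-stranded form by primer extension. GST-tagged yeast transcription factors from PURExpress in vitro transcription/translation, full-length or DNA-binding domain only, were applied at about 100-200 nM and detected with fluorescent anti-GST. After masliner normalisation, the Universal PBM Analysis Suite scored each ungapped eight-base word together with its reverse complement by E-score.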
row,Sequence,PBM E-score
1,CGTAATGC,0.23
2,AGAAGCAT,0.0325
3,TATTAGAA,0.234
4,ACCCTAAA,-0.212
5,GCCGCAAA,-0.204
6,AGGAAAAA,0.00347
7,CCCATGGG,-0.174
8,GCAGGTAC,-0.0928
9,ACCATGGG,-0.244
10,GTATACTA,0.0716
11,CAGCGGGA,-0.226
12,AGATCGAT,-0.0341
13,ACGATTTC,0.132
14,AGAAAATC,-0.0334
15,ACACACCG,0.287
16,ATCAAGTC,0.0662
17,AGTCTCTG,-0.217
18,ACCCACAG,-0.0315
19,CAGACGTC,-0.0719
20,CAGAAATC,-0.0849
21,CGCGAATA,0.135
22,CCGTGAAC,-0.0809
23,CGATTTTA,0.081
24,AAGGTTCT,-0.063
25,CTATGTCC,-0.177

row,Sequence,PBM E-score
1,CCTGGTTC,-0.147
2,ATACGGAC,-0.12
3,ATATCGAA,0.0738
4,AAGAAAAC,0.0106
5,ACGATCTC,-0.132
6,AACAGGCA,0.0325
7,GTCACCCA,-0.182
8,CTTACACA,0.408
9,GAGCGCCA,-0.25
10,CGTTTAGA,-0.00881
11,CACGTTGG,0.109
12,GTAGCAAC,0.16
13,CACCGCAG,-0.173
14,ATAGCCGC,-0.101
15,CGTCGACC,-0.01
16,ACTCCATA,-0.214
17,ACGGCGCG,0.118
18,AAGACCAG,-0.101
19,AACTACGC,0.224
20,GTCCACAC,0.124
21,ACTGAGTA,-0.0165
22,GATATATC,-0.228
23,CTGGAATA,0.0108
24,CGTCTGCC,-0.213
25,ATTCTTGC,0.00961

row,Sequence,PBM E-score
1,GCTCGGAC,-0.269
2,ACAGCAAA,0.177
3,CGTGGAAA,0.0796
4,AATATGGG,-0.217
5,CGCAGCAC,-0.043
6,AGAGCATA,-0.0993
7,ACATACAT,0.421
8,CTTGCTCA,-0.254
9,GCCGGAAC,-0.254
10,AATCCCGA,-0.115
11,ATAATGCA,0.0474
12,ATAGTTCA,0.0984
13,ACATTTCA,0.214
14,AGTTGCAT,0.0449
15,ACACCCGG,-0.0695
16,GGGAACCA,-0.181
17,GAAAGGCC,-0.196
18,CTGGTACA,0.0927
19,GGGGACTA,-0.0876
20,CAAAACAG,0.124
21,AAGCCGCA,-0.12
22,ATAGCAGA,0.00582
23,AGCCAAGC,-0.18
24,GCTCTCAA,-0.101
25,AACTGTTG,-0.104

row,Sequence,PBM E-score
1,GATTCCCC,-0.196
2,GAAGTCGA,-0.0459
3,ATGGTTTG,-0.0325
4,GCGACAGA,-0.161
5,GAACACCC,-0.112
6,TTGTACAA,0.442
7,AGGTAAAA,0.16
8,CTACAAAA,0.0813
9,AATCTTTG,0.169
10,GCAGCTGA,-0.142
11,TGCTCCCA,0.0677
12,GGGTGCCA,-0.211
13,CTAGGTCC,-0.196
14,AGCCACCG,-0.248
15,AATCGGAG,-0.157
16,CTAGATAC,0.159
17,CAAGACAA,0.156
18,AAAACTAT,0.132
19,AATTTATC,0.295
20,AGTAAAGA,0.121
21,ACCTGGAC,-0.188
22,ACGGCTCC,-0.094
23,CTCAGGTA,0.0219
24,ATTAATAC,0.29
25,ACAACGAC,0.175

row,Sequence,PBM E-score
1,GAGGCCTC,-0.357
2,CCTAGGCA,-0.206
3,ATGTACTG,0.351
4,ACGTTAGC,0.24
5,CAGTAAAC,0.00951
6,ACGCAGGC,0.0953
7,TAAGGTGA,-0.094
8,AAGTCCTG,-0.155
9,CGAAGTAG,-0.0138
10,CGGTACCA,-0.164
11,CTTTACGA,0.185
12,ATATTAAA,0.258
13,AAAAAGGA,-0.00436
14,CCTGAAGC,-0.225
15,TGTTAAAA,0.43
16,GGTGAGCA,-0.0507
17,CATAGCAA,0.0168
18,CTCGTAAG,0.172
19,GCATGTAC,0.408
20,CTCCCGAG,-0.354
21,CGGCTGAG,-0.288
22,CGAGTGCA,0.18
23,AGCTTATC,-0.216
24,AGGCGGAT,-0.0519
25,GCGGTGGA,-0.197

row,Sequence,PBM E-score
1,CCTTACTC,-0.032
2,ATTGCGAC,0.00921
3,CACTTCTC,-0.182
4,GATGGAGC,-0.06
5,GACTGCCC,-0.138
6,AAGGCTAA,-0.0882
7,GAAAGCAC,-0.0664
8,ATGAATCG,0.0465
9,ACACTTAG,0.112
10,GCAGTGGA,-0.17
11,GATTACGA,0.301
12,AGCGGGAC,-0.128
13,CCTGCAGA,2e-05
14,GCGTCGTA,0.144
15,AACCGCCC,-0.0483
16,CACAATGC,0.00497
17,CCCAGATC,-0.252
18,GTTTGTAA,0.337
19,CAAGAGTC,-0.0613
20,ACATTCTG,0.128
21,ATACCCGG,-0.118
22,GCATAACC,-0.188
23,CAGACAAA,0.134
24,CACTGGGG,-0.211
25,ATGGAAAC,-0.195

row,Sequence,PBM E-score
1,CCTAACTA,0.021
2,CGCTCCCA,-0.282
3,GGCACCCA,-0.262
4,CTACACAA,0.369
5,CCTCCATA,-0.162
6,ATAGCCGG,0.0442
7,AAAGCGTT,-0.0784
8,CCCGTAGG,-0.194
9,CGAGTTAG,0.066
10,GACAGGGA,-0.0965
11,AGCGGGGG,-0.397
12,CAGGCGAA,0.0909
13,AATAGTAA,0.132
14,AAGGCTCA,-0.0424
15,ATGGCCCG,-0.209
16,AAGTTGCC,-0.261
17,GCTGACAC,0.0946
18,ACATCATG,0.214
19,TACTCTAA,0.00046
20,AGGGGTCA,-0.18
21,CATTCGTA,0.158
22,CCTGCAAG,-0.314
